Structures can show the parent of a compound that is named as a salt. This is one part of the list. Repeats are few or missing, and single values can be far off. Non-standard residues stand in square brackets, D forms with d. Residues, ends and D or L forms follow the SMILES beside them. *: point of attachment. NHCH2CH2OH = OCCN*; For = O=C*

The test system of the assay is Beas-2B AQP5-HiBiT reporter cells. Briefly: AQP5-HiBiT luminescence relative to vehicle (ratio to vehicle); higher = higher AQP5-HiBiT protein abundance. Particulars: 10 µM; 18 h. A general note: With HiBiT, luminescence reflects the tagged protein that the partner subunit can reach.
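Note: monoclonal Beas-2B line stably carrying CMV promoter-driven AQP5-HiBiT, 5,000 cells per well in 384-well plates, lytic HiBiT plus LgBiT NanoLuc luminescence, FDA-approved drug library screen.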

Turning to `Cc1c(OCC(F)(F)F)ccnc1C[S+]([O-])c1nc2ccccc2[nH]1` (stereo unspecified) [Lansoprazole], the AQP5-HiBiT luminescence was found to be 0.942.

For `C[C@H](CCC(=O)NCCS(=O)(=O)O)[C@H]1CC[C@H]2[C@@H]3[C@H](O)C[C@@H]4C[C@H](O)CC[C@]4(C)[C@H]3C[C@H](O)[C@]12C` [Taurocholic acid sodium salt hydrate], the AQP5-HiBiT luminescence turned out to be 0.844.

On to `Cc1cccc(CN2CCN(C(c3ccccc3)c3ccc(Cl)cc3)CC2)c1` (stereo unspecified) [Meclizine 2hydrochloride], for which the AQP5-HiBiT luminescence was 0.826.

As to `C[N+]1(C)CCC(=C(c2ccccc2)c2ccccc2)CC1` [Diphemanil mesylate], the AQP5-HiBiT luminescence was 1.06.

On to `Cc1cn([C@H]2C=C[C@@H](CO)O2)c(=O)[nH]c1=O` [Stavudine], for which the AQP5-HiBiT luminescence was determined as 0.973.

With `CC(C)Cc1ccc(C(C)C(=O)O)cc1` (stereo unspecified) [Ibuprofen], the AQP5-HiBiT luminescence is 1.09.

Take `NC(=O)N[C@@H](CCC(=O)O)C(=O)O` [Carbaglu]: the AQP5-HiBiT luminescence turned out to be 0.785.

`CCN(CC)CCNC(=O)c1c(C)[nH]c(/C=C2\C(=O)Nc3ccc(F)cc32)c1C` [Sunitinib Malate]: the AQP5-HiBiT luminescence was 0.459.

Regarding `Cc1c(OCC(F)(F)F)ccnc1C[S@@+]([O-])c1nc2ccccc2[nH]1` [R-(+)-Lansoprazole], the AQP5-HiBiT luminescence came out at 1.02.

As to `N=C(N)N/N=C/c1c(Cl)cccc1Cl` [Guanabenz Acetate], the AQP5-HiBiT luminescence amounted to 1.03.

For the compound `CC(C)NCC(O)COc1ccc(CC(N)=O)cc1` (stereo unspecified) [Atenolol], the AQP5-HiBiT luminescence turned out to be 1.02.

With `CNC[C@H](O)c1ccc(O)c(O)c1` [Epinephrine bitartrate], the AQP5-HiBiT luminescence was determined as 0.782.

Consider `CC(C)C[C@@H](NC(=O)[C@H](C)NC(=O)CNC(=O)[C@@H](NC=O)C(C)C)C(=O)N[C@@H](C)C(=O)N[C@@H](C(=O)N[C@H](C(=O)N[C@H](C(=O)N[C@@H](Cc1c[nH]c2ccccc12)C(=O)N[C@H](CC(C)C)C(=O)N[C@@H](Cc1c[nH]c2ccccc12)C(=O)N[C@H](CC(C)C)C(=O)N[C@@H](Cc1c[nH]c2ccccc12)C(=O)N[C@H](CC(C)C)C(=O)N[C@@H](Cc1c[nH]c2ccccc12)C(=O)NCCO)C(C)C)C(C)C)C(C)C` [Gramicidin] (For-VGA[dL]A[dV]VVW[dL]W[dL]W[dL]W-NHCH2CH2OH), for which the AQP5-HiBiT luminescence was determined as 4.45.

On to `CCOC(=O)[C@H](CCc1ccccc1)N[C@@H](C)C(=O)N1Cc2ccccc2C[C@H]1C(=O)O` [Quinapril hydrochloride], for which the AQP5-HiBiT luminescence worked out at 0.953.

In the case of `CN1CCC[C@H]1c1cccnc1` [Nicotine], the AQP5-HiBiT luminescence is 0.741.

On to `Oc1c(Cl)cc(Cl)c2cccnc12` [Capitrol], for which the AQP5-HiBiT luminescence turned out to be 0.83.

For `CCN(Cc1ccncc1)C(=O)C(CO)c1ccccc1` (stereo unspecified) [Tropicamide], the AQP5-HiBiT luminescence was 0.584.

`CC(C[N+](C)(C)C)OC(N)=O` (stereo unspecified) [Bethanechol chloride]: the AQP5-HiBiT luminescence came to 0.858.

As for `CC(C)(C)NC[C@H](O)COc1nsnc1N1CCOCC1` [Timolol Maleate], the AQP5-HiBiT luminescence is 1.55.

On to `Cn1c(=O)c2c(ncn2C)n(C)c1=O` [Caffeine], for which the AQP5-HiBiT luminescence amounted to 1.07.

Consider `CC(C)NCC(O)COc1ccc(COCCOC(C)C)cc1` (racemic) [(±)-Bisoprolol hemifumarate], for which the AQP5-HiBiT luminescence was 1.33.

In the case of `CCN(CC)CCNC(=O)c1cc(Cl)c(N)cc1OC` [Metoclopramide hydrochloride], the AQP5-HiBiT luminescence was determined as 0.934.

In the case of `NS(=O)(=O)c1cc2c(cc1Cl)NC(C(Cl)Cl)NS2(=O)=O` (stereo unspecified) [Trichlormethiazide], the AQP5-HiBiT luminescence came out at 0.796.

Consider `C[C@H](CCC(=O)NCCS(=O)(=O)O)[C@H]1CC[C@H]2[C@@H]3[C@@H](O)C[C@@H]4C[C@H](O)CC[C@]4(C)[C@H]3CC[C@]12C` [Tauroursodeoxycholic Acid], for which the AQP5-HiBiT luminescence amounted to 0.751.

With `CC#CCn1c(N2CCC[C@@H](N)C2)nc2c1c(=O)n(Cc1nc(C)c3ccccc3n1)c(=O)n2C` [Linagliptin], the AQP5-HiBiT luminescence turned out to be 1.04.

In the case of `CN(C)CCCN1c2ccccc2Sc2ccc(C(F)(F)F)cc21` [Triflupromazine hydrochloride], the AQP5-HiBiT luminescence is 1.22.

For `C[C@H]1COc2c(N3CCN(C)CC3)c(F)cc3c(=O)c(C(=O)O)cn1c23` [Levofloxacin hydrochloride], the AQP5-HiBiT luminescence worked out at 0.935.

For `OCCN1CCN(CCCN2c3ccccc3Sc3ccc(Cl)cc32)CC1` [Perphenazine], the AQP5-HiBiT luminescence was 2.

Consider `C[C@@H]1C[C@H]2[C@@H]3CCC4=CC(=O)C=C[C@]4(C)[C@@]3(F)[C@@H](O)C[C@]2(C)[C@@]1(O)C(=O)CO` [Dexamethasone (DHAP)], for which the AQP5-HiBiT luminescence amounted to 0.787.

As for `CC1(C)S[C@@H]2[C@H](NC(=O)[C@H](N)c3ccccc3)C(=O)N2[C@H]1C(=O)O` [Ampicillin Trihydrate], the AQP5-HiBiT luminescence was found to be 0.845.

Regarding `C#C[C@]1(O)CC[C@H]2[C@@H]3CCC4=CC(=O)CC[C@@H]4[C@H]3CC[C@@]21CC` [Levonorgestrel], the AQP5-HiBiT luminescence is 0.906.

As to `CN1[C@@H]2CC[C@H]1C[C@@H](OC(c1ccccc1)c1ccccc1)C2` [Benztropine mesylate], the AQP5-HiBiT luminescence came out at 1.08.

Take `C[C@@H](O)[C@H]1C(=O)N2C(C(=O)O)=C(S[C@@H]3CN[C@H](CNS(N)(=O)=O)C3)[C@H](C)[C@H]12` [Doripenem Hydrate]: the AQP5-HiBiT luminescence is 0.895.

For the compound `CC(=O)Oc1cc2c(s1)CCN(C(C(=O)C1CC1)c1ccccc1F)C2` (stereo unspecified) [Prasugrel], the AQP5-HiBiT luminescence was found to be 0.986.

`COC(=O)[C@H](c1ccccc1Cl)N1CCc2sccc2C1` [Clopidogrel]: the AQP5-HiBiT luminescence is 1.08.

Take `O=C(NC1CCN(CCCCC2(C(=O)NCC(F)(F)F)c3ccccc3-c3ccccc32)CC1)c1ccccc1-c1ccc(C(F)(F)F)cc1` [Lomitapide Mesylate]: the AQP5-HiBiT luminescence is 1.15.

Take `CN[C@H](CC(C)C)C(=O)N[C@H]1C(=O)N[C@@H](CC(N)=O)C(=O)N[C@H]2C(=O)N[C@H]3C(=O)N[C@H](C(=O)N[C@H](C(=O)O)c4cc(O)cc(O)c4-c4cc3ccc4O)[C@H](O[C@H]3C[C@](C)(N)[C@@H](O)[C@H](C)O3)c3ccc(c(Cl)c3)Oc3cc2cc(c3O[C@@H]2O[C@H](CO)[C@@H](O)[C@H](O)[C@H]2O[C@H]2C[C@](C)(NCc3ccc(-c4ccc(Cl)cc4)cc3)[C@@H](O)[C@H](C)O2)Oc2ccc(cc2Cl)[C@H]1O` [Oritavancin diphosphate]: the AQP5-HiBiT luminescence worked out at 0.401.

Regarding `C#CCN(C)Cc1ccccc1` [Pargyline hydrochloride], the AQP5-HiBiT luminescence amounted to 1.05.

`COCC(=O)Nc1c(I)c(C(=O)NCC(O)CO)c(I)c(C(=O)N(C)CC(O)CO)c1I` (stereo unspecified) [Iopromide]: the AQP5-HiBiT luminescence turned out to be 0.7.

`Clc1ccc(C(Cn2ccnc2)OCc2ccsc2Cl)c(Cl)c1` (stereo unspecified) [Vagistat]: the AQP5-HiBiT luminescence came out at 0.477.

`Nc1nc(=O)c2c([nH]1)NCC(CNc1ccc(C(=O)N[C@@H](CCC(=O)O)C(=O)O)cc1)N2C=O` (stereo partly specified) [Calcium folinate]: the AQP5-HiBiT luminescence was 0.485.

Take `CCCCCOC(=O)Nc1nc(=O)n([C@@H]2O[C@H](C)[C@@H](O)[C@H]2O)cc1F` [Capecitabine]: the AQP5-HiBiT luminescence was 0.995.

As for `CCOC(=O)O[C@]1(C(=O)OCCl)CC[C@H]2[C@@H]3CCC4=CC(=O)C=C[C@]4(C)[C@H]3[C@@H](O)C[C@@]21C` [Loteprednol etabonate], the AQP5-HiBiT luminescence stood at 0.894.

On to `CCCc1nn(C)c2c(=O)[nH]c(-c3cc(S(=O)(=O)N4CCN(C)CC4)ccc3OCC)nc12` [Sildenafil citrate], for which the AQP5-HiBiT luminescence was 0.723.

Regarding `CC(C)(Oc1ccc(C(=O)c2ccc(Cl)cc2)cc1)C(=O)O` [Fenofibric acid], the AQP5-HiBiT luminescence stood at 0.922.

As for `Oc1ccc(OCc2ccccc2)cc1` [Monobenzone], the AQP5-HiBiT luminescence was determined as 0.467.

Take `CCCCCCOC(=O)NC(=N)c1ccc(NCc2nc3cc(C(=O)N(CCC(=O)OCC)c4ccccn4)ccc3n2C)cc1` [Dabigatran etexilate]: the AQP5-HiBiT luminescence was determined as 0.63.

`CC(C)(S)[C@@H](N)C(=O)O` [Artamine]: the AQP5-HiBiT luminescence was determined as 0.823.

On to `COc1ccc(C[C@@H]2c3cc(OC)c(OC)cc3CC[N@+]2(C)CCC(=O)OCCCCCOC(=O)CC[N@@+]2(C)CCc3cc(OC)c(OC)cc3[C@H]2Cc2ccc(OC)c(OC)c2)cc1OC` [Cisatracurium besylate], for which the AQP5-HiBiT luminescence stood at 0.876.

As for `C=C1[C@H](CO)[C@@H](O)C[C@@H]1n1cnc2c(=O)[nH]c(N)nc21` [Entecavir], the AQP5-HiBiT luminescence was determined as 0.575.

`CCN1CCN(C(=O)N[C@@H](C(=O)N[C@@H]2C(=O)N3[C@@H]2SC(C)(C)[C@@H]3C(=O)O)c2ccccc2)C(=O)C1=O` [Piperacillin sodium salt]: the AQP5-HiBiT luminescence amounted to 1.08.

For the compound `CCN1CCN(C(=O)N[C@@H](C(=O)N[C@@H]2C(=O)N3C(C(=O)O)=C(CSc4nnnn4C)CS[C@H]23)c2ccc(O)cc2)C(=O)C1=O` [Cefoperazone sodium], the AQP5-HiBiT luminescence came out at 1.17.

As for `O=C1CCc2cc(OCCCCc3nnnn3C3CCCCC3)ccc2N1` [Cilostazol], the AQP5-HiBiT luminescence was 0.983.

As to `C[C@@H]1CCN(C(=O)CC#N)C[C@@H]1N(C)c1ncnc2[nH]ccc12`, the AQP5-HiBiT luminescence was 0.442.

Turning to `CC1(C)O[C@@H]2C[C@H]3[C@@H]4C[C@H](F)C5=CC(=O)C=C[C@]5(C)[C@H]4[C@@H](O)C[C@]3(C)[C@]2(C(=O)CO)O1` [Flunisolide], the AQP5-HiBiT luminescence was 0.769.

Take `CCn1cc(C(=O)O)c(=O)c2cc(F)c(N3CCNC(C)C3)c(F)c21` (stereo unspecified) [Lomefloxacin]: the AQP5-HiBiT luminescence amounted to 1.07.

The values are drawn from the supplement of paper PMC8821664.
